According to PubChem BioAssay (NCI):
“And” between values parts separate entries of the source, which are not always exact repeats. Equal entries are not always repeated.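 How tested: cells in 96-well plates exposed to compound for 48 hours at five concentrations. The concentration for 50% growth inhibition is given as GI50. At the TGI there is no net growth.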

system: NCI-H322M lung; test: NCI tumour cell line growth inhibition, 48 h

| Structure (SMILES) | TGI | GI50 |
| --- | --- | --- |
| CCOC(=O)CCCO | > 100 µM |  |
| O=C(O)c1cc(S(=O)(=O)N=NC=C2c3ccccc3N(O)c3ccccc32)ccc1O | > 100 µM |  |
| Cc1c(C(=O)/C=C/c2cccc3ccccc23)[n+](=O)c2ccccc2n1[O-] | 30.2 µM |  |
| S=C1NCCN1C1=Nc2ccccc2CO1 | > 100 µM | > 100 µM |
| CC(=O)CC(=O)c1cc2c(=O)oc(C)cc2oc1=O | > 37.5 µM |  |
| CN(C)c1ccc(/C=C2\C[N+](C)(C)C/C(=C\c3ccc(N(C)C)cc3)C2=O)cc1 | > 100 µM |  |
| N#CC(C#N)=C1CCCS(=O)(=O)c2ccccc21 | > 100 µM |  |
| CC(=O)c1ccc(N(/C=C/C(=O)C(F)(F)F)CC(=O)c2ccc(Cl)c(Cl)c2)cc1 | 30.9 µM | 16.5 µM |
| CC(=O)OCCc1cccnc1/C=N/O | > 100 µM |  |
| O=C1c2ccccc2-c2c1c1cc3c(cc1c(=O)n2CCCCl)OCO3 | 68 µM | 15.1 µM |
| NC1(CCCCCCCCCCC(=O)O)CNCCNCCNCCNC1 | > 100 µM |  |
| O=C(N/N=C/c1cccc(O)c1O)N/N=C/c1cccc(O)c1O | 79.5 µM |  |
| c1ccc(-c2nnc(-c3nn(-c4ccccc4)c4nc5ccccc5nc34)o2)cc1 | > 100 µM |  |
| O=C1NC(=S)NC(=O)C1C(c1ccccc1[N+](=O)[O-])C1C(=O)NC(=S)NC1=O | > 100 µM |  |
| O=C1NC(=O)C2C(=O)NC(=O)C1C2(c1ccccc1)c1ccc(Cl)cc1 (stereo unspecified) | > 100 µM |  |
| N#Cc1c(OCCF)c2ccccc2n2c1nc1ccccc12 | > 100 µM |  |
| O=C1/C(=C/c2ccc([N+](=O)[O-])cc2)CNC/C1=C\c1ccc([N+](=O)[O-])cc1 | > 100 µM |  |
| COC(=O)CCCC(=O)C(=Nc1c(Cl)cccc1Cl)NNc1ccc(Cl)cc1 | > 100 µM |  |
| Cc1cccc(N(CCC#N)S(=O)(=O)c2ccccc2)c1 | > 100 µM |  |
| CN(C)S(=O)(=O)Nc1ccccn1 | > 100 µM |  |
| N=[N+]=CC(=O)OCC(N)C(=O)O (stereo unspecified) | 88 µM |  |
| O=C(O/N=C1/CCC/C1=C\c1ccccc1)c1ccc([N+](=O)[O-])cc1 | > 100 µM |  |

| Structure (SMILES) | TGI | GI50 |
| --- | --- | --- |
| CCOC(=O)C1CC(O)C(=O)N1C (stereo unspecified) | > 100 µM |  |
| COc1cccc(-c2nn(-c3ccccc3)cc2-c2ccnc(NCCCNS(=O)(=O)c3cccc(F)c3)c2)c1 | > 100 µM | > 100 µM |
| Clc1cccc(NC=Nc2ccc(-c3nc4ccccc4s3)cc2)c1 | 48.1 µM | 16.6 µM |
| CC(=O)/C(=C/n1c(=S)sc2ccccc21)C(=O)Nc1ccccc1C | > 100 µM |  |
| O=C(O)c1ccc(NS(=O)(=O)Cc2ccccc2)cc1 | > 100 µM |  |
| CCOc1ccc2nc(NC(=O)/C(CC(=O)CC(C3=C(O)c4ccccc4CC3=O)c3ccccc3)=N\O)sc2c1 (stereo unspecified) | > 100 µM |  |
| CCOC(=O)C1C(=O)CC(O)(c2ccccc2)C(C(=O)OCC)C1c1ccc(OC)cc1 (stereo unspecified) | > 100 µM |  |
| Cc1oc2nc(N(C)C)n3nnnc3c2c1C | > 100 µM |  |
| COc1ccc(CN2CCCC(C(=O)c3ccc(C(F)(F)F)cc3)C2)c(O)c1 (stereo unspecified) | > 100 µM | 57 µM |
| O=C(O)CNC(=O)c1ccc([As](=O)(O)O)cc1 | > 100 µM |  |
| COc1cccc(-c2nc(-c3cnccn3)n(Cc3ccccc3)n2)c1 | > 100 µM |  |
| N#Cc1cnn2ccn(C3OC(COC(=O)c4ccccc4)C(OC(=O)c4ccccc4)C3OC(=O)c3ccccc3)c12 (stereo unspecified) | > 31.6 µM |  |
| COc1cc2c(c(OC)c1OC)-c1ccc(NCc3ccccc3)c(=O)cc1[C@@H](NC(C)=O)CC2 | > 100 µM | 0.612 µM |
| CN1CCCNCCN(CCc2ccccn2)CCCN(C)CC1 | > 100 µM |  |
| CC(=O)Nc1ccc(Cl)c(Cl)c1 | > 100 µM |  |
| COc1ccc(N=Cc2cc(OC)c(OC)c(OC)c2)cc1 | > 100 µM |  |
| O=C(Cc1ccc(/C=C/C(=O)c2ncc[nH]2)cc1)Nc1ccc(Cl)cc1 | 10.7 µM | 4 µM |
| Cc1cccc(C(C)(C)C)c1NC(=O)C(=O)Cc1nc2ccccc2s1 | > 100 µM |  |
| N#Cc1c2c(c(Nc3ccc(F)cc3)n3c1nc1ccccc13)CCC2 | 23.7 µM |  |
| COc1ccc(/C=C(/C(=O)O)c2cc(OC)c(OC)c(OC)c2)cc1 | > 100 µM |  |
| COc1cc2c(cc1OC)C(=O)/C(=C/c1cc(C)c(O)c(C)c1)C2 | > 100 µM |  |
| COc1ccccc1NC(=O)c1ccc(/C=C/C(=O)c2nccn2C)cc1 | 1.2 µM | 0.479 µM |

| Structure (SMILES) | TGI | GI50 |
| --- | --- | --- |
| O=c1[nH]c(=O)n(C2CC(O)C(CO)O2)cc1C#Cc1c(F)c(F)c(F)c(F)c1F (stereo unspecified) | > 100 µM |  |
| CCCCCCCCCCCCCCC1OC(=O)c2ccccc21 (stereo unspecified) | > 100 µM |  |
| O=C(CCc1ccc(O)cc1)c1c(O)cc(O)cc1OC1OC(CO)C(O)C(O)C1O (stereo unspecified) | > 100 µM |  |
| O=C1OC[C@@H]2Cc3c([nH]c4ccccc34)[C@@H](c3ccc(O)cc3)N12 | > 100 µM |  |
| O=c1c(Cl)c(Cl)cnn1-c1ccccc1 | 11.6 µM and 17.8 µM | 2.68 µM and 9.53 µM |
| CC(C)/C(Cl)=N\OC(=O)NNc1ccccc1 | > 100 µM |  |
| NS(=O)(=O)c1ccc(-n2nc(-c3ccc(Br)cc3)ccc2=O)cc1 | > 10 µM | > 10 µM |
| C(=Nc1ccc(-c2nc3ccccc3s2)cc1)c1ccco1 | > 100 µM |  |
| Cc1ccc(C2=Nc3c(c(C)nn3-c3ccccc3)N=C(C(=O)O)C2)cc1 | > 10 µM |  |
| Cc1cccc(C[C@@]2(SCc3ccccc3)C(C)(C)[C@@H]3CC[C@@]2(C)C3)n1 | 55.7 µM |  |
| O=C1c2ccccc2C(=O)c2c1ccc1[nH]c(CCl)nc21 | 23.3 µM | 11.2 µM |
| Cc1ccc(C(=O)Nc2ccc(CP(=O)(O)O)cc2)cc1NC(=O)c1cccc(NC(=O)Nc2cccc(C(=O)Nc3cc(C(=O)Nc4ccc(CP(=O)(O)O)cc4)ccc3C)c2)c1 | > 100 µM |  |
| CCn1c(=O)c2c3cc(O)ccc3oc2c2ccc(O)cc21 | > 100 µM |  |
| Cc1cc(C)nc(NS(=O)(=O)c2ccc(NC(=O)c3cccc4c(=O)c5ccccc5[nH]c34)cc2)n1 | 43 µM |  |
| Cc1nc2nnc(C)n2c2c1C(=O)Nc1ccccc1N2 | > 100 µM |  |
| OC(c1cccc(C(F)(F)F)c1)c1cnccc1NC1CCCCCC1 (stereo unspecified) | 5.29 µM | 2.02 µM |
| Cc1cc2cccc(Cl)c2nc1C(=O)c1ccccc1 | > 100 µM |  |
| COC1C=CC23c4cc5c(cc4C(O)OC2CN(C)C3C1)OCO5 (stereo unspecified) | 9.45 µM |  |
| CC(C)=CC1C(C(=O)O)C1(C)C (stereo unspecified) | > 750 µM |  |
| CCOC(=O)c1cnc2[nH]ccn2c1=O | > 10 µM |  |
| Cn1c(-c2nonc2N)nc2cnccc21 | > 25 µM | > 25 µM |
| COc1cc([C@@H]2c3cc4c(cc3[C@@H](NC(=O)c3cccc([N+](=O)[O-])c3)C3COC(=O)[C@@H]32)OCO4)cc(OC)c1O (stereo partly specified) | > 100 µM |  |

| Structure (SMILES) | TGI | GI50 |
| --- | --- | --- |
| C/C(=N\NC(N)=S)c1ccc(C)cc1C | > 100 µM |  |
| CC1CCC[P+](Cc2ccccc2)(c2ccccc2)CC1 (stereo unspecified) | > 100 µM |  |
| CCN(CCCN(CC)C(=O)N[C@@H](Cc1ccccc1)C(=O)NC)C(=O)N[C@@H](Cc1ccccc1)C(=O)NC | > 100 µM |  |
| O=C1C(C=NCCc2c[nH]c3ccccc23)C(C(F)(F)F)=NN1c1nc2ccccc2s1 (stereo unspecified) | 95.9 µM |  |
| C1CN2N3CCCC23C1 (stereo unspecified) | > 100 µM |  |
| NNC(=O)c1cnn(-c2ccnc3c(C(F)(F)F)cccc23)c1N | > 100 µM | > 100 µM |
| CC(=O)OCC1OC(n2c(=S)[nH]c(-c3ccccc3)c(C#N)c2=O)C(OC(C)=O)C(OC(C)=O)C1OC(C)=O (stereo unspecified) | > 100 µM |  |
| CCC[C@H](C)[C@H]1NC(=O)[C@@H](NC(=O)[C@@H](CC(C)C)N(C)C(=O)C2CCCN2C(=O)[C@H](C)O)[C@@H](C)OC(=O)[C@H](CC(C)C)N(C)C(=O)[C@@H]2CCCN2C(=O)[C@H](CC(C)C)NC(=O)[C@@H](C)C(=O)[C@H](C(C)C)OC(=O)C[C@@H]1O (stereo partly specified) | 0.0231 µM |  |
| NCCCC(N)C(=O)O (stereo unspecified) | > 100 µM |  |
| COc1cc2c(c(O)c1C)C(=O)C(Cl)=CC2=O | 34.1 µM |  |
| O=C1/C(=C/c2ccc(Br)s2)NC(=S)N1CN1CCOCC1 | > 100 µM |  |
| O=[n+]1c(CBr)c(CBr)n([O-])c2ccccc21 | 30.9 µM | 15.8 µM |
| CC(C)c1c(P(=O)(c2ccccc2)c2ccccc2)n(C)c2ccccc12 | > 100 µM |  |
| OCCNCO | > 100 µM |  |
| C=C1CC(OC)(C(O)C(=O)N[C@H]2OCO[C@H]3C2O[C@H](C[C@@H](COC)OC)C(C)(C)C3OC)O[C@H](C)[C@@H]1C (stereo partly specified) | < 0.00482 µM |  |
| O=C(O)Cc1c[nH]c2ccc(F)cc12 | > 100 µM |  |
| C[C@@H]1C[C@H](O)[C@]2(O)O[C@@H]3C[C@@]4(C=O)[C@@H](CC=C5[C@@H]4CC[C@]4(C)[C@@H](C6=CC(=O)OC6)CC[C@]54O)C[C@H]3O[C@@H]2O1 | 0.27 µM |  |
| CC1=C[C@@H]2Cc3occc3C(C)(C)[C@@H]2CC1 | > 100 µM |  |
| CSc1c(C(=O)Nc2ccc(C)cc2)c(N)[nH]c(=O)c1C#N | > 100 µM |  |
